Results from the RNAGym collection of RNA variant scans (doi:10.1101/gad.245936.114).
This sample is rich in variants without activity.

B1: tRNA (parent)
chain: CUCUCGGUAGCCAAGUUGGUUUAAGGCGCAAGACUUUAAUUUAUCACUACGAAAUCUUGAGAUCGGGCGUUCGACUCGCCCCCGGGAGAUUUUUUCCUCGAGCAA

Variants of: B1
Test: nonsense suppression (GFP-seq) (ratio to wild type); higher = more function; SUP4oc tRNA, yeast GFP reporter sort-seq
In short: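 Nonsense suppression (GFPSEQ) is the median GFP/RFP ratio of each sorting bin, weighted by the variant's estimated share of cells in that bin and expressed relative to the unmutated parent tRNA. Yeast strains carried genome-integrated variants of an ochre-suppressor tRNA from a library with ~3% random mutations, plus a galactose-driven GFP ochre reporter and RFP, and were grown in raffinose/galactose medium containing 80 mg/L adenine. Cells were sorted into GFP/RFP bins, each bin was Illumina-sequenced (phred ≥30), and variants were kept only with ≥100 reads and ≥30 cells.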

Nonsense suppression, ≤ 0.026:
CUCUCGGUAGCGAUGUUGGUUUAAGGCGCAAGACUUUAAUUUAUCACUACGAAAUCUUGAGAUCGGGCGUUCGACUCGCCCCCGGGAGGUUUUUUCCUCGAGCAA [C12G A14U A89G]
CUCUCGGUAGCGAAGUUGGUUUCAGGCGCAAGACUUUAAUUUAUCACUACGAAAUCAUGAGAUCGCGCGUUCGACUCGCCCCCGGGAGAUUUUUUCCUCGAGCAA [C12G A23C U57A G66C]
CUCUCGGUAGCGAAGUUGGUUUUAGGCGCAAGACUUUAAUUUAUCACUACGAAAUCUUGAGUUCGCGCGUUCGACUCGCCCCCGGGAGAUUUUUUCCUCGAGCAA [C12G A23U A62U G66C]
CUCUCGGUAGCGAAGUUGGUUUUAGGCGCAAGACUUUAAUUUAUCACUACGAAAUCUUGAGAUCGGGCGUUCGACUCGCCCCCGAGAGAUUUUUUCCUCGAGCAA [C12G A23U G85A]
CUCUCGGUAGCGAAGUUGGUUUAAGGCGCCAGACUUUAAUUUAUCACUACGAAAUCUUUAGAUCGGGCGUUCGACUCGCCCCCGGGAGAUUUUUUCCUCGAGCAA [C12G A30C G59U]
CUCUCGGUAGCGAAGUUGGUUUAAGGCGCGAGACUUUAAUUUAUCACUACGAAAUCUUGAGAUCGGGCGUUCGACUCGCCCGCGGGAGAUUUUUUCCUCGAGCAA [C12G A30G C82G]
CUCUCGGUAGCGAAGUUGGUUUAAGGCGCAUGACUUUAAUUUAUCACUACGAAAUCUUGAGAUCGGGCGUUCGACUCGCCCCCGGGAGAUUUUUUCCUCGAGCAA [C12G A31U]
CUCUCGGUAGCGAAGUUGGUUUAAGGCGCAUGUCUUUAAUUUAUCACUACGAAAUCUGGAGAUCGGGCGUUCGACUCGCCCCCGGGAGAUUUUUUCCUCGAGCAA [C12G A31U A33U U58G]
CUCUCGGUAGCGAAGUUGGUUUAAGGCGCAUGACUUUAAUUUAUCACUACGAAACCUUGAGAUCGGGCGUUCGACUCGCGCCCGGGAGAUUUUUUCCUCGAGCAA [C12G A31U U55C C80G]
CUCUCGGUAGCGAAGUUGGUUUAAGGCGCAAGUCUUUAAUUUAUCACUACGAAACCUUGAGUUCGGGCGUUAAACCCGCCCCCGGGAGAUUUUUUCCUCGAGCAA [C12G A33U U55C A62U C72A G73A U76C]
CUCUCGGUAGCGAAGUUGGUUUAAGGCGCAAGUCUUUAAUUUAUCACUACGAAACCUUGAGAUCGGGCGUUAAACCCGCCCCCGGGAGAUUUUUUCCUCGAGCAA [C12G A33U U55C C72A G73A U76C]
CUCUCGGUAGCGAAGUUGGUUUAAGGCGCAAGUCUUUAAUUUAUCACUACGAAAUCUUGAGAUCGGGCGGUCGACUCGCCCCCGGGAGAUUUUUUCCUCGAGCAA [C12G A33U U70G]
CUCUCGGUAGCGAAGUUGGUUUAAGGCGCAAGACUUUAAUUUAUCACUACGAACUCUUGAGAUCGGGCGUUGGACUCGCCCCCGGGAGAUUUUUUCCUCGAGCAA [C12G A54C C72G]
CUCUCGGUAGCGAAGUUGGUUUAAGGCGCAAGACUUUAAUUUAUCACUACGAAUUCUUGAGAUCGGGCGUUCGACUCGCCCCCGGGGGAUUUUUUCCUCGAGCAA [C12G A54U A87G]
CUCUCGGUAGCGAAGUUGGUUUAAGGCGCAAGACUUUAAUUUAUCACUACGAAAUCUUGAGCUCAGGCGUUCGACUCGCCCCGGGGAGAUUUUUUCCUCGAGCAA [C12G A62C G65A C83G]
CUCUCGGUAGCGAAGUUGGUUUAAGGCGCAAGACUUUAAUUUAUCACUACGAAAUCUUGAGUUCGGGCGUUCGACUGGCCCCCGGGACAUUUUUUCCUCGAGCAA [C12G A62U C77G G88C]
CUCUCGGUAGCGAAGUUGGUUUAAGGUGCAAGACUUUAAUUUAUCACUACGAAAUCUUGAGAUCGGGCGUUCGACUCGCCCCCGGGAGAUUUUUUCCUCGAGCAA [C12G C27U]
CUCUCGGUAGCGAAGUUGGUUUAAGGUGCAAGACUUUAAUUUAUCACUACGAAUCCUUGAGAUCGGGCGUUCGACUCGCCCCCGGGAGAUUUUUUCCUCGAGCAA [C12G C27U A54U U55C]
CUCUCGGUAGCGAAGUUGGUUUAAGGUGCAAGACUUUAAUUUAUCACUACGAAAUCUUGAGAUCGGGCGUCCGACUCGCCCCCGGGAGAUUUUUUCCUCGAGCAA [C12G C27U U71C]
CUCUCGGUAGCGAAGUUGGUUUAAGGCGAAAGAUUUUAAUUUAUCACUACGAAAUCUUGAGAUCGGGCGUUCGACUCGCCCCCGGGCGAUUUUUUCCUCGAGCAA [C12G C29A C34U A87C]
CUCUCGGUAGCGAAGUUGGUUUAAGGCGAAAGACUUUAAUUUAUCACUACGAAAUCUUCAGAUCGGGCGUUCGACGCGCCCCCGGGAGAUUUUUUCCUCGAGCAA [C12G C29A G59C U76G]
CUCUCGGUAGCGAAGUUGGUUUAAGGCGUAAGACUUUAAUUUAUCACUACGAAAUCUUGAGAUGGGGCGUUCGACUCGCCCCCGGGAGAUUUUUUCCUCGAGCAA [C12G C29U C64G]
CUCUCGGUAGCGAAGUUGGUUUAAGGCGCAAGAAUUUAAUUUAUCACUACGAAAUCUUGAGAUCGGGCGUUCGACUCGCCCCCGGGAGAUUUUUUCCUCGAGCAA [C12G C34A]
CUCUCGGUAGCGAAGUUGGUUUAAGGCGCAAGAAUUUAAUUUAUCACUACGAAAUCUUGAGAUCGGGCGUUCGACUCGCCCCCGGCAGAUUUUUUCCUCGAGCAA [C12G C34A G86C]
CUCUCGGUAGCGAAGUUGGUUUAAGGCGCAAGAAUUUAAUUUAUCACUACGAAAUCUUGAGAUCGGGCGUUCGACUCGCCCCCGGGACAUUUUUUCCUCGAGCAA [C12G C34A G88C]
CUCUCGGUAGCGAAGUUGGUUUAAGGCGCAAGACUUUAAUUUAUCACUACGAAAUGUUGACAUCGGGCGUUCGACUCGCCCCCGGGAGAUUUUUUCCUCGAGCAA [C12G C56G G61C]
CUCUCGGUAGCGAAGUUGGUUUAAGGCGCAAGACUUUAAUUUAUCACUACGAAAUCUUGAGAUGGGGCGUUCGACUGGCCCCCGGGAGAUUUUUUCCUCGAGCAA [C12G C64G C77G]
